In the antibiotic and cytotoxicity screens of Wong et al. (2023):
The other results are listed elsewhere or left out.

system: HSkMC (human skeletal muscle cells); experiment: cytotoxicity call (relative viability < 0.9); conditions: 10 µM

| Compound | cytotoxicity call |
| --- | --- |
| C[C@H](CO)N1C[C@H](C)[C@H](CN(C)CC2CCCCC2)OCCCC[C@H](C)Oc2ccc(NC(=O)CCCCCC(=O)Nc3ccccc3N)cc2C1=O | inactive |
| C[C@@H]1CN([C@H](C)CO)C(=O)c2cc(NC(=O)C3CCCCC3)ccc2O[C@@H](C)CCCCO[C@H]1CN(C)S(=O)(=O)c1cccs1 | inactive |
| CC(=O)n1cc([C@H]2C=C(C(=O)N3CCCCCCC3)O[C@@H](OCc3ccc(COC(=O)NCCCCCC(=O)NO)cc3)C2)c2ccccc21 | inactive |
| COc1ccc2c3c(n(c2c1)C)[C@@H](CO)N(C[C@]13CN(C1)C(=O)Nc1cccc(c1)F)C(=O)C1CCOCC1 | inactive |
| CCCCCCOc1ccccc1C(N)=O | inactive |
| NC(=O)N1CCC(CC(=O)N2CCC([C@H]3c4ncc(Br)cc4CCc4cc(Cl)cc(Br)c43)CC2)CC1 | inactive |
| C[C@H](CO)N1C[C@H](C)[C@H](CN(C)S(=O)(=O)c2ccccc2)OCCCC[C@H](C)Oc2ccc(NC(=O)c3ccccc3)cc2C1=O | inactive |
| O=C(C[C@H]1C[C@@H]2c3cc(NC(=O)Nc4ccccc4F)ccc3O[C@@H]2[C@@H](CO)O1)NCc1ccc(Oc2ccccc2)cc1 | inactive |
| CO[C@H](CN(C)C(=O)Nc1ccc(C(F)(F)F)cc1)[C@@H](C)CN(Cc1ccccc1Cl)[C@H](C)CO | inactive |

system: HepG2; experiment: cytotoxicity call (relative viability < 0.9); conditions: 10 µM

| Compound | cytotoxicity call |
| --- | --- |
| O=C(N[C@@H](c1cccnc1)c1ccc2c(c1)OCO2)C1CCN(CCOc2ccc(Cl)cc2Cl)CC1 | inactive |
| O=C(CO)C(O)C(O)C(O)CO (centres undefined) | inactive |
| Cc1noc(C)c1NC(=O)N(C)C[C@H]1Oc2c(NC(=O)c3ccncc3)cccc2C(=O)N([C@H](C)CO)C[C@@H]1C | inactive |
| COc1cccc(NC(=O)N[C@H]2C=C[C@@H](CC(=O)N3CCOCC3)O[C@H]2CO)c1 | inactive |
| CC(C)NC(=O)N(C)C[C@@H]1Oc2ccc(NS(=O)(=O)c3cccs3)cc2C(=O)N([C@@H](C)CO)C[C@H]1C | inactive |
| Cc1c(C(=O)O)sc2[nH]cnc(=O)c12 | inactive |
| C[C@@H]1CN([C@@H](C)CO)C(=O)c2cccc(NC(=O)Nc3ccc(C(F)(F)F)cc3)c2O[C@@H]1CN(C)C(=O)Nc1cccc2ccccc12 | active |
| C[C@@H]1CN([C@H](C)CO)C(=O)CCCn2cc(nn2)CO[C@H]1CN(C)Cc1ccc2c(c1)OCCN2C | inactive |
| Cc1noc(C)c1NC(=O)N(C)C[C@H]1OCCCC[C@H](C)Oc2ccc(NC(=O)Nc3ccc(F)cc3)cc2C(=O)N([C@H](C)CO)C[C@@H]1C | inactive |
| C[C@@H]1CN([C@@H](C)CO)C(=O)Cc2cc(NS(=O)(=O)c3cn(C)cn3)ccc2O[C@H]1CN(C)S(=O)(=O)c1ccc(Cl)cc1 | inactive |
| C[C@H]1CN([C@@H](C)CO)C(=O)c2cc(NS(=O)(=O)c3cn(C)cn3)ccc2O[C@@H]1CN(C)S(=O)(=O)c1cccs1 | inactive |
| CCCCn1c(-c2ccccc2)nc(-c2ccccc2)c1CN(Cc1ccc2c(c1)OCO2)Cc1ccc2c(c1)OCO2 | inactive |
| C[C@@H]1CN([C@@H](C)CO)S(=O)(=O)c2ccc(C#Cc3ccccc3)cc2O[C@H]1CN(C)C(=O)Cc1ccccn1 | inactive |
| C[C@@H]1CN([C@H](C)CO)C(=O)c2cc(NC(=O)NC3CCCCC3)ccc2O[C@@H](C)CCCCO[C@H]1CN(C)S(=O)(=O)c1cccs1 | inactive |
| CCCNC(=O)N(C)C[C@H]1Oc2cc(-c3ccccc3F)ccc2S(=O)(=O)N([C@@H](C)CO)C[C@@H]1C | inactive |
| CCCC#Cc1ccc2c(c1)O[C@H](CN(C)C(=O)c1cnccn1)[C@H](C)CN([C@@H](C)CO)S2(=O)=O | inactive |
| COc1ccc(S(=O)(=O)Nc2ccc3c(c2)C(=O)N([C@@H](C)CO)C[C@H](C)[C@@H](CN(C)C(=O)c2ccccc2)OCCCC[C@@H](C)O3)cc1 | inactive |
| Cc1c(-c2ccc(-c3ccc(Cl)c(Cl)c3)o2)nc(-c2ccccc2)c2c1CO[Si]2(C(C)C)C(C)C | inactive |
| N=C(N)NCCCCNC(=N)N | active |
| O=C(C[C@@H]1C=C[C@H](NC(=O)Nc2ccc3c(c2)OCO3)[C@@H](CO)O1)NCCCN1CCOCC1 | inactive |

| Compound | cytotoxicity call |
| --- | --- |
| C[C@H]1CN([C@@H](C)CO)C(=O)c2cc(NS(=O)(=O)c3cccs3)ccc2O[C@H]1CN(C)Cc1ccc(Oc2ccccc2)cc1 | inactive |
| COc1ccc(S(=O)(=O)N[C@@H]2C=C[C@H](CC(=O)NCCc3ccncc3)O[C@@H]2CO)cc1 | inactive |
| COc1ccc(NC(=O)N(C)C[C@@H]2OCCCC[C@H](C)Oc3ccc(NC(=O)Nc4c(C)noc4C)cc3C(=O)N([C@H](C)CO)C[C@@H]2C)cc1 | inactive |
| CCC1=C(C)CN(C(=O)NCCc2ccc(S(=O)(=O)NC(=O)NC3CCC(C)CC3)cc2)C1=O (centres undefined) | inactive |
| C[C@H](CO)N1C[C@H](C)[C@@H](CN(C)Cc2cccc(F)c2)Oc2cc(C#CC3CC3)ccc2S1(=O)=O | inactive |
| CCN(CC)c1ccc(N2CC=C[C@@]34O[C@@H]5/C=C\CCCOC(=O)[C@@H]5[C@H]3C(=O)N([C@@H](C)CO)[C@@H]4C2=O)cc1 | inactive |
| COc1ccc(-c2cc(=O)c3c(O)cc(O[C@@H]4O[C@H](CO[C@@H]5O[C@@H](C)[C@H](O)[C@@H](O)[C@H]5O)[C@@H](O)[C@H](O)[C@H]4O)cc3o2)cc1O | inactive |
| C[C@H]1CN([C@@H](C)CO)C(=O)c2cc(NC(=O)CCCCCC(=O)Nc3ccccc3N)ccc2O[C@H]1CN(C)Cc1ccc(Cl)c(Cl)c1 | inactive |
| C[C@@H]1CN([C@H](C)CO)C(=O)Cc2cc(NC(=O)CCN3CCOCC3)ccc2O[C@@H]1CN(C)S(=O)(=O)c1ccc(F)cc1 | inactive |
| NCCOc1ccccc1Cc1ccccc1 | inactive |
| C[C@H](CO)N1C[C@H](C)[C@@H](CN(C)C(=O)Nc2cccc3ccccc23)OCCCC[C@H](C)Oc2ccc(NC(=O)CCC(F)(F)F)cc2C1=O | active |
| C[C@H](CO)N1C[C@H](C)[C@H](CN(C)CC2CCCCC2)OCCCC[C@H](C)Oc2ccc(NC(=O)CCCCCC(=O)Nc3ccccc3N)cc2C1=O | inactive |
| C[C@@H]1CN([C@H](C)CO)C(=O)c2cc(NC(=O)C3CCCCC3)ccc2O[C@@H](C)CCCCO[C@H]1CN(C)S(=O)(=O)c1cccs1 | inactive |
| CC(=O)n1cc([C@H]2C=C(C(=O)N3CCCCCCC3)O[C@@H](OCc3ccc(COC(=O)NCCCCCC(=O)NO)cc3)C2)c2ccccc21 | inactive |
| COc1ccc2c3c(n(c2c1)C)[C@@H](CO)N(C[C@]13CN(C1)C(=O)Nc1cccc(c1)F)C(=O)C1CCOCC1 | inactive |
| CCCCCCOc1ccccc1C(N)=O | inactive |
| NC(=O)N1CCC(CC(=O)N2CCC([C@H]3c4ncc(Br)cc4CCc4cc(Cl)cc(Br)c43)CC2)CC1 | inactive |
| C[C@H](CO)N1C[C@H](C)[C@H](CN(C)S(=O)(=O)c2ccccc2)OCCCC[C@H](C)Oc2ccc(NC(=O)c3ccccc3)cc2C1=O | inactive |
| O=C(C[C@H]1C[C@@H]2c3cc(NC(=O)Nc4ccccc4F)ccc3O[C@@H]2[C@@H](CO)O1)NCc1ccc(Oc2ccccc2)cc1 | inactive |
| CO[C@H](CN(C)C(=O)Nc1ccc(C(F)(F)F)cc1)[C@@H](C)CN(Cc1ccccc1Cl)[C@H](C)CO | inactive |
